Assay results taken from patent US6030980A, “Agent for the treatment of infections” (priority 1994, dated 2000).

Key:
Candida albicans = test: Resistance of thermally injured mice to Candida albicans infection (Experimental Example 9); settings: 1 μg/kg intraperitoneal; Candida albicans 2×10^4 cells/mouse; FIG. 4
cytomegalovirus (CMV) = test: Survival of thermally injured mice infected with cytomegalovirus (Experimental Example 7); settings: 10 μg/kg/day oral

COCC12CN(C)C3C4C(OC)C1C3(C(OC)CC2O)C1CC2(O)C(OC)C(O)C4(O)C1C2OC(=O)c1ccccc1 (centres unmarked) [benzoylmesaconine]
resistance of the thermally injured mice to the fungal infection (Candida albicans): completely recovered
protection against opportunistic infection of the thermally injured mice to CMV (cytomegalovirus (CMV)): efficiently protected
